The campaign covered roughly 46,000 compounds. About 60 (0.1%) were called active. Roughly 3% stayed inconclusive and do not appear here. The call rests on the fitted dose curve; in most records, active means well fitted inhibition curve with a large enough effect; inconclusive means small, poorly fitted or top-dose-only effect; inactive means no such curve, though single readings can be large or run the other way. Some of the results follow.
Assay: Primary qHTS assay for Inhibitors of ovarian cancer metastasis using an organotypic tumor microenvironment (TME) model. Further: nearly all actives have a fitted effect of over 65% in size.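 On activity change, negative = inhibition: plate controls were DMSO wells for no effect and tomatine positive control wells for full effect.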
Details: SKOV3ip1-GFP adhesion/invasion on 3D omental model, fluorescence; series mostly up to 45.8 µM; activity change, negative = inhibition: at the top concentration
Method in brief: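 Primary human omental fibroblast/mesothelial 3D culture pre-formed 48 h. SKOV3ip1-GFP cells added with compounds (0.36-46 umol/L), incubated 2 h RT/16 h 37 C, fixed; GFP cells quantified at 488/509 nm.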

outcome, inactive:
COc1ccc(CNC(=O)CCC(=O)N2CC3CCCN3c3ccccc32)c(OC)c1 (stereo unspecified)
CNC(=O)c1c[nH]c2ccc(S(=O)(=O)Nc3cccc(Cl)c3C)cc2c1=O
COC(=O)c1cc(S(=O)(=O)NCC2CCN(Cc3ccc(C)cc3)CC2)c[nH]1
CC(C)(C)OC(=O)N1CCC(c2nnc(SCc3ccccc3)o2)CC1
O=C(CSc1nnc2[nH]c(=O)cc(-c3ccccc3)n12)Nc1ccc(F)cc1F
Cc1cc(C)cc(NC(=O)C2CCCN2S(=O)(=O)c2cccc3nsnc23)c1 (stereo unspecified)

Activity change, negative = inhibition, inactive:
CCc1cccc(NC(=O)CSc2ncccc2C(=O)Oc2ccccc2Cl)c1 -2.71%
CCOc1ccc(NC(=O)CCS(=O)(=O)c2cccc3nonc23)cc1 -1.99%
Cc1ccc(-n2ncc3c(N4CCN(C)CC4)ncnc32)cc1Cl -3.46%
CNC(=O)c1ccc(Nc2nnc(-c3ccc(C)c(S(=O)(=O)N4CCCCC4)c3)c3ccccc23)cc1 -15.6%
CCOC(=O)c1c(NC(=O)c2cc(C)on2)sc(C)c1C -7.39%
Cc1cc(C)c2c(=O)cc(C(=O)Nc3sc4c(c3C(=O)NCc3cccnc3)CCCC4)oc2c1 2.11%
CCOc1ccc(-n2c(SCC(=O)Nc3ccc(F)cc3)nc3c([nH]c4ccccc43)c2=O)cc1 -2.27%
CC(=O)c1cccc(NC(=O)c2ccc(-n3c(C)nnc3C)cc2)c1 12.9%
CCOc1ccccc1CNC(=O)c1ccc2c(c1)sc1nc(-c3cccc(OC)c3)cn12 -6.45%
CC(C)n1c(SCC(=O)Nc2ccc(F)cc2)nc2c(oc3ccccc32)c1=O -23.8%
CC(C)C12CN3CC(C(C)C)(CN(C1)C3c1ccc(OCc3ccccc3)cc1)C2=O (stereo unspecified) 10.2%
CCC(Sc1nc2nccnc2c(=O)n1Cc1ccc(OC)cc1)C(=O)NC1CCCCC1 (stereo unspecified) 1.33%
COc1ccccc1CNC(=O)c1ccc(N2Cc3cccc(OC)c3Oc3ncccc32)s1 -4.33%
COc1ccc(-c2noc(-c3ccc(N4CCCCC4C)c([N+](=O)[O-])c3)n2)cc1OC (stereo unspecified) -5.74%
O=C1OC(C(=O)Nc2ccc(Cl)c(C(F)(F)F)c2)Cc2ccccc21 (stereo unspecified) 2.74%
Cc1cc(NC(=O)COc2ccccc2)cc(-c2nc3ccccc3o2)c1O 15%
Cn1ncc(C(=O)N2CCN(c3ccc(F)cc3)CC2)c1C1CCN(C(=O)OC(C)(C)C)CC1 -2.61%
CCCN1C(=O)C(Cc2nc3ccccc3c(=O)n2-c2cccc(C)c2)c2ccccc21 (stereo unspecified) 0.796%
CCCn1c(-c2cccc(Br)c2)nc2ccccc21 0.175%
CCn1c(-c2ccc(S(=O)(=O)N3CCOCC3)cc2)csc1=Nc1ccc(C)c(Cl)c1 1.99%
